{
  "source": "PubChem BioAssay AID1030",
  "about": "(National Center for Advancing Translational Sciences (NCATS), 2008)",
  "note": "Several values for one entry are separate records, joined by “and”; a condition that tells them apart may be missing. Equal entries are not always repeated. The whole screen tested about 220,000 compounds, of which about 16,000 (7.3%) were called active. Inconclusive results, whose numbers are uncertain, are shown with a selection of clear calls. Calls come from the whole dose curve; as a rule, active = well fitted inhibition curve with a large enough effect (not every such curve was filed as active); inconclusive = small, poorly fitted or top-dose-only effect, or another doubt; inactive = no such curve, though single readings can be large or run the other way. Potencies beside an inconclusive call are fits to weak or partial responses and may not hold up. Potency is the fitted concentration of half-maximal effect; tags give direction and shape of the fitted curve.",
  "data": [
    {"target": "Aldehyde dehydrogenase 1A1 (Homo sapiens) (UniProt P00352)", "sequence (P00352 whole entry, looked up)": "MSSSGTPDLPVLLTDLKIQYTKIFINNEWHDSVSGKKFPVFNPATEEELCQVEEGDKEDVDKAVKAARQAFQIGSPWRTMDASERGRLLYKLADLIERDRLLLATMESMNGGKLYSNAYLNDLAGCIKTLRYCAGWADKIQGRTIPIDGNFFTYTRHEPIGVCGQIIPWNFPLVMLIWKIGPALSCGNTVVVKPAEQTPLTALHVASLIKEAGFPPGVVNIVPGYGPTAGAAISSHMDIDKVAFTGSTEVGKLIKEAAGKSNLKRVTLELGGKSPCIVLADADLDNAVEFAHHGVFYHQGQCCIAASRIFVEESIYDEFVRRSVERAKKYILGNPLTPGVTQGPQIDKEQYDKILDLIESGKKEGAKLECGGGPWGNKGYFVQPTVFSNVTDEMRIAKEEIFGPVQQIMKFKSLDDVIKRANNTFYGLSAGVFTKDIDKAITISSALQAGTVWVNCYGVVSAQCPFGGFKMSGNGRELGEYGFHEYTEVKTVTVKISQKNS", "test": "qHTS Assay for Inhibitors of Aldehyde Dehydrogenase 1 (ALDH1A1);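 for activity, negative = inhibition: plate controls were no enzyme wells and a reference inhibitor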", "settings": "Purified ALDH1A1, NADH fluorescence, propionaldehyde substrate; series mostly up to 75.3 µM; activity, negative = inhibition: at the top concentration", "values": [
      {"compound": "COc1cc(CNc2nc(C)c([N+](=O)[O-])c(C)c2C#N)cc(OC)c1", "Potency": "active: 3.98 µM"},
      {"compound": "O=[N+]([O-])c1ccc(Sc2nnnn2-c2ccccc2)c(Cl)c1", "Potency": "active: 3.55 µM"},
      {"compound": "CSc1ccc(CN2CCC(C(=O)NCc3ccc(C)cc3)CC2)cc1", "activity, negative = inhibition": "inactive: -5.91%"},
      {"compound": "CN(C)CCOC(=O)c1ccc(N)cc1", "activity, negative = inhibition": "inactive: -2.43% [at 13.5 µM]"},
      {"compound": "COc1ccc(CN2C=C3C(=O)C(C)(OC(=O)C4CCCC4)C(=O)C=C3C=C2c2ccsc2)cc1", "note": "(stereo not drawn)", "activity, negative = inhibition": "inactive: -10.4% [at 13.5 µM]"},
      {"compound": "Cc1occc1-c1nnc(SCc2cc(=O)n3cc(Br)ccc3n2)n1C", "Potency": "inconclusive: 18.9 µM [inhibitor, single point]"},
      {"compound": "CCC(c1nnnn1CCc1ccccc1)N(Cc1ccco1)Cc1cc2cc(C)cc(C)c2[nH]c1=O", "note": "(stereo not drawn)", "Potency": "inconclusive: 35.5 µM [inhibitor, single point]"},
      {"compound": "COc1ccc(Br)cc1C(=O)Nc1ccc(C(=O)NCC(C)C)cc1", "Potency": "inconclusive: 39.8 µM [inhibitor, single point]"},
      {"compound": "CC(C)CCNc1c(-c2cccs2)nc2ccccn12", "Potency": "inconclusive: 37.7 µM [inhibitor, single point]"},
      {"compound": "O=[N+]([O-])c1ccc(N2CCCCC2)nc1", "Potency": "inconclusive: 39.8 µM [inhibitor, single point]"},
      {"compound": "C#CCOC(=O)Nc1cc(C)n(-c2ccccc2)n1", "activity, negative = inhibition": "inactive: -3.11%"},
      {"compound": "CN(C)C(CNC(=O)c1cccc(C#N)c1)c1ccco1", "note": "(stereo not drawn)", "Potency": "inconclusive: 39.8 µM [inhibitor, single point]"},
      {"compound": "Cc1cc[n+](CC(=O)c2ccccc2)c2ccccc12", "activity, negative = inhibition": "inactive: -6.46%"},
      {"compound": "Cc1cccc(CSc2nc3[nH]ncc3c(=O)[nH]2)c1", "Potency": "active: 8.91 µM"},
      {"compound": "Cc1ccc(CSCC(=O)NCc2ccco2)cc1", "Potency": "inconclusive: 39.8 µM [inhibitor, single point]"},
      {"compound": "C=CCn1c(C)cc(C(=O)COc2ccc(S(=O)(=O)N3CCCC3)cc2[N+](=O)[O-])c1C", "Potency": "active: 5.01 µM"},
      {"compound": "COc1ccc(NC(=O)CSc2nnc3ccc(-c4ccncc4)nn23)cc1OC", "activity, negative = inhibition": "inactive: 5.87%"},
      {"compound": "COc1ccc(CSC(=N)N)cc1[N+](=O)[O-]", "Potency": "active: 28.2 µM"},
      {"compound": "COc1ccc2c(c1OC)C(=O)N1N=C(c3ccc(-c4ccccc4)cc3)CC21", "note": "(stereo not drawn)", "Potency": "inconclusive: 39.8 µM [inhibitor, single point]"},
      {"compound": "Cc1ccc(/C=N/N2CCN(Cc3ccccc3)CC2)s1", "Potency": "inconclusive: 39.8 µM [inhibitor, single point]"},
      {"compound": "Cc1cc(SCCC(=O)O)nc2ccccc12", "activity, negative = inhibition": "inactive: -13%"},
      {"compound": "CC(C)/C=C1\\CC/C(=C\\c2cccnc2)C1=O", "Potency": "inconclusive: 39.8 µM [inhibitor, single point]"},
      {"compound": "NS(=O)(=O)c1ccc(NC(=S)Nc2ccc(Br)c(Cl)c2)cc1", "Potency": "inconclusive: 35.5 µM [inhibitor, single point]"},
      {"compound": "COC(=O)C1=C(C)N(c2ccc(F)cc2)/C(=C/c2ccc(O)cc2)C1=O", "activity, negative = inhibition": "inactive: -11%"},
      {"compound": "N=c1c[n+](N2CCOCC2)[n-]o1", "Potency": "inactive and inconclusive: 39.8 µM [inhibitor, single point]"},
      {"compound": "CCOc1cccc(C(=O)Nc2ccncc2)c1", "activity, negative = inhibition": "inactive: 1.64%"},
      {"compound": "Cc1nc(N)sc1C(=O)N1N=N1", "Potency": "inconclusive: 28.2 µM [inhibitor, single point]"},
      {"compound": "Clc1cc2c(c(Cn3cnc4ccccc43)c1)OCOC2", "activity, negative = inhibition": "inactive: -1.01%"},
      {"compound": "O=C1CC(N2CCC(c3nc4ccccc4s3)CC2)C(=O)N1Cc1ccccc1", "note": "(stereo not drawn)", "Potency": "inconclusive: 35.5 µM [inhibitor, single point]"},
      {"compound": "Cc1cccc2sc(NC(=O)C3=NN(c4ccccc4)C(=O)CC3)nc12", "activity, negative = inhibition": "inactive: -7.07%"},
      {"compound": "Cc1ccc(NC(=O)COC(=O)CC2CCCC2)cc1Cl", "Potency": "active: 22.4 µM"},
      {"compound": "CCCc1nnc(SCC(=O)N2CCCCC2C)n1CCOC", "note": "(stereo not drawn)", "activity, negative = inhibition": "inactive: -2.37%"},
      {"compound": "O=C(Cc1ccccc1)Nc1ccc2c(c1)C(=O)N(CC1CCCO1)C2=O", "note": "(stereo not drawn)", "Potency": "inconclusive: 15.8 µM [inhibitor, partial curve]"},
      {"compound": "CC1(C)SC(=S)N(Cc2ccc3c(c2)OCO3)C1N(O)C(=O)NC1CCCCC1", "note": "(stereo not drawn)", "Potency": "inconclusive: 39.8 µM [inhibitor, single point]"},
      {"compound": "O=C(CCc1nnc(CCCc2ccccc2)o1)NCCCC1CCCC1", "activity, negative = inhibition": "inactive: -14.6%"},
      {"compound": "CC(=O)c1ccc(NC(=O)/C(=C\\c2ccccc2)NC(=O)/C=C/c2ccccc2)cc1", "Potency": "inconclusive: 22.4 µM [inhibitor, partial curve]"},
      {"compound": "CCOc1ccc(C2C(C#N)=C(N)N3C(=C2C#N)Sc2ccccc23)cc1", "note": "(stereo not drawn)", "Potency": "inconclusive: 39.8 µM [inhibitor, single point]"},
      {"compound": "CCN(c1ccccc1)c1cc(NC)[n+](C)c(C)n1", "activity, negative = inhibition": "inactive: -12.8%"},
      {"compound": "Clc1ccc2nc(-c3ccccc3)[nH]c2c1", "Potency": "inconclusive: 25.1 µM [inhibitor, single point]"},
      {"compound": "CCOc1cnc(-c2ccccc2F)o1", "Potency": "inconclusive: 37.7 µM [inhibitor, single point]"},
      {"compound": "Cc1ccc(O)c(C(CC(=O)NC2CCCCC2)c2ccccc2)c1", "note": "(stereo not drawn)", "activity, negative = inhibition": "inactive: 5.04%"},
      {"compound": "CC1(C)CC(=O)C2=C(C1)Nc1ncnn1C2c1ccccn1", "note": "(stereo not drawn)", "Potency": "inconclusive: 28.2 µM [inhibitor, single point]"},
      {"compound": "CCCCC(=O)Nc1ccc2c(c1)C(=O)NC2=O", "Potency": "inconclusive: 28.2 µM [inhibitor, partial curve]"},
      {"compound": "Cc1nn(C)c(C)c1S(=O)(=O)N1CCCC(C(=O)NCC2COc3ccccc3O2)C1", "note": "(stereo not drawn)", "activity, negative = inhibition": "inactive: -9.39%"},
      {"compound": "CCOC(=O)CN1C(=O)SC(CC(=O)Nc2nccs2)C1=O", "note": "(stereo not drawn)", "Potency": "inconclusive: 35.5 µM [inhibitor, single point]"},
      {"compound": "CCCNC(=S)N1CCN(c2nc(C)nc3sc4c(c23)CCCC4)CC1", "Potency": "inconclusive: 39.8 µM [inhibitor, single point]"},
      {"compound": "CCn1cc(CCC(=O)O)c(C)n1", "activity, negative = inhibition": "inactive: 6.28%"},
      {"compound": "O=C(OCC1OC(OC(=O)c2cc(O)c(O)c(OC(=O)c3cc(O)c(O)c(O)c3)c2)[C@@H](OC(=O)c2cc(O)c(O)c(OC(=O)c3cc(O)c(O)c(O)c3)c2)C(OC(=O)c2cc(O)c(O)c(OC(=O)c3cc(O)c(O)c(O)c3)c2)C1OC(=O)c1cc(O)c(O)c(OC(=O)c2cc(O)c(O)c(O)c2)c1)c1cc(O)c(O)c(OC(=O)c2cc(O)c(O)c(O)c2)c1", "note": "(stereo partly drawn)", "Potency": "inconclusive: 37.7 µM [inhibitor, single point]"},
      {"compound": "C/C(=N\\OCC(=O)Nc1ccccc1C(=O)O)c1cccs1", "Potency": "inconclusive: 39.8 µM [inhibitor, single point]"},
      {"compound": "Cc1ccc2c(c1)c(C)c(C)n2CC(O)CN1CCCCC1C", "note": "(stereo not drawn)", "activity, negative = inhibition": "inactive: 13.5%"},
      {"compound": "CC1(C)CC(=O)C(C=NCCN2CCN(CC(=O)Nc3ccc(Cl)cc3)CC2)=C(O)C1", "Potency": "inconclusive: 15.8 µM [inhibitor, single point]"},
      {"compound": "CCOC(=O)c1c(NC(=O)Nc2ccc(Cl)cc2)sc(C)c1C", "Potency": "inconclusive: 39.8 µM [inhibitor, single point]"},
      {"compound": "O=C(c1cccnc1)N1CCN(C(=O)c2cccs2)CC1", "activity, negative = inhibition": "inactive: 3.54%"},
      {"compound": "Cc1cccn2c(=O)c(/C=C(\\C#N)C(N)=O)c(N3CCN(Cc4ccc5c(c4)OCO5)CC3)nc12", "Potency": "inconclusive: 28.2 µM [inhibitor, partial curve]"},
      {"compound": "Cc1cccn2c(=O)c3cc(C(=O)N4CCN(C(=O)c5ccco5)CC4)n(C)c3nc12", "Potency": "inconclusive: 25.1 µM [inhibitor, partial curve]"},
      {"compound": "CCOC(=O)c1c(N)sc(C(=O)Nc2ccc3c(c2)OCO3)c1C", "Potency": "inconclusive: 14.1 µM [inhibitor, partial curve]"},
      {"compound": "c1ccc(CNc2nc(NCc3ccccc3)c3ccccc3n2)cc1", "Potency": "inconclusive: 35.5 µM [inhibitor, single point]"},
      {"compound": "Clc1ccc(-c2nc3ccncc3[nH]2)cc1", "Potency": "active: 11.2 µM"},
      {"compound": "COC(=O)/C(=C\\c1cc(OC)c(OC)c(OC)c1)c1nc2ccccc2[nH]1", "Potency": "inconclusive: 12.6 µM [inhibitor, partial curve]"},
      {"compound": "Cc1ccc(NS(=O)(=O)c2ccc(NC(=O)C3CCCO3)cc2)cc1", "note": "(stereo not drawn)", "Potency": "active: 22.4 µM"},
      {"compound": "COc1ccc(C)cc1NC(=O)C(Sc1nnc(Nc2cc(C)ccc2OC)s1)c1ccccc1", "note": "(stereo not drawn)", "Potency": "inconclusive: 35.5 µM [inhibitor, single point]"},
      {"compound": "O=C(NNC(=S)NC(=O)C12CC3CC(CC(C3)C1)C2)c1ccncc1", "activity, negative = inhibition": "inactive: -13.6%"},
      {"compound": "CCCCNC(=S)N1CCN(CC)CC1", "Potency": "inconclusive: 39.8 µM [inhibitor, single point]"},
      {"compound": "CNC(=S)N1CCN(c2c(F)cc3c(=O)c(C(=O)O)cn(C4CC4)c3c2OC)CC1C", "note": "(stereo not drawn)", "Potency": "inconclusive: 35.5 µM [inhibitor, single point]"},
      {"compound": "C/C(CC(=O)Nc1ccc2ccccc2c1)=N\\NC(=O)c1cnccn1", "Potency": "inconclusive: 39.8 µM [inhibitor, single point]"},
      {"compound": "Cc1nc2nc[nH]n2c(=O)c1C/C=C/c1ccccc1", "activity, negative = inhibition": "inactive: 3.08%"},
      {"compound": "Cc1onc(-c2ccccc2Cl)c1C(=O)N1C=CC(C(F)(F)Cl)=NCC1", "Potency": "inconclusive: 15.8 µM [inhibitor, partial curve]"},
      {"compound": "COc1ccc(-c2nc(N)ncc2-c2csc(C)n2)c(O)c1OC", "activity, negative = inhibition": "inactive: 4.27%"},
      {"compound": "NC(=O)COC(=O)c1c2c(nc3ccccc13)CCCC2", "Potency": "inconclusive: 22.4 µM [inhibitor, single point]"},
      {"compound": "CN1/C(=C\\C(=O)c2ccco2)C(C)(C)c2ccccc21", "Potency": "inconclusive: 39.8 µM [inhibitor, single point]"},
      {"compound": "Cc1cc(C(=O)O)c(C)n1-c1ccccc1", "Potency": "inconclusive: 7.08 µM [inhibitor, single point]"},
      {"compound": "Cc1cc(C)c2c(=O)c(C#N)coc2c1", "Potency": "active: 10 µM"},
      {"compound": "Cc1cc(OCC(=O)c2ccc(Br)cc2)ccc1N1C(=O)CCC1=O", "Potency": "inconclusive: 39.8 µM [inhibitor, single point]"}
    ]}
  ]
}
